Experimental data published in article PMC9911399, “Two distinct binding modes provide the RNA-binding protein RbFox with extraordinary sequence specificity”.
Numbering of substitutions follows the chain as printed; changes in the protein carry UniProt numbers. This is one part of the list.

T1: RBFOX1 RRM (Homo sapiens, UniProt Q9NWB1 109-208)
T1 sequence: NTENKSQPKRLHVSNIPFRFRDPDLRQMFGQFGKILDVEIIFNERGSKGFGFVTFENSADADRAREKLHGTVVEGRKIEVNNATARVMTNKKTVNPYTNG

B1: AUAUCAU (DNA:RNA)
RNA: GGGAGACCGGAAUUCAGAUUGUCCAUAUCAUUUAAAUCCCGUCGUAGCCACCA
DNA 1: CAATCTGAATTCCGGTCTCCC
DNA 2: TGGTGGCTACGACGGGATT
B2: GAAGGCC (DNA:RNA)
RNA: B1 RNA with A25G, U26A, U28G, C29G, A30C, U31C
DNA 1: CAATCTGAATTCCGGTCTCCC
DNA 2: TGGTGGCTACGACGGGATT
B3: UAUUUCG (DNA:RNA)
RNA: B1 RNA with A25U, U26A, A27U, C29U, A30C, U31G
DNA 1: CAATCTGAATTCCGGTCTCCC
DNA 2: TGGTGGCTACGACGGGATT
B4: GAUCGCA (DNA:RNA)
RNA: GGGAGACCGGAAUUCAGAUUGUCCGAUCGCAUUAAAUCCCGUCGUAGCCACCA
DNA 1: CAATCTGAATTCCGGTCTCCC
DNA 2: TGGTGGCTACGACGGGATT
B5: UUCGACU (DNA:RNA)
RNA: B1 RNA with A25U, A27C, U28G, C29A, A30C
DNA 1: CAATCTGAATTCCGGTCTCCC
DNA 2: TGGTGGCTACGACGGGATT
B6: CGACUGG (DNA:RNA)
RNA: B1 RNA with A25C, U26G, U28C, C29U, A30G, U31G
DNA 1: CAATCTGAATTCCGGTCTCCC
DNA 2: TGGTGGCTACGACGGGATT
B7: ACUACGA (DNA:RNA)
RNA: B1 RNA with U26C, A27U, U28A, A30G, U31A
DNA 1: CAATCTGAATTCCGGTCTCCC
DNA 2: TGGTGGCTACGACGGGATT
B8: GCACCGA (DNA:RNA)
RNA: B4 RNA with A26C, U27A, G29C, C30G
DNA 1: CAATCTGAATTCCGGTCTCCC
DNA 2: TGGTGGCTACGACGGGATT
B9: ACCCCUG (DNA:RNA)
RNA: B1 RNA with U26C, A27C, U28C, A30U, U31G
DNA 1: CAATCTGAATTCCGGTCTCCC
DNA 2: TGGTGGCTACGACGGGATT
B10: GGGAUAC (DNA:RNA)
RNA: B1 RNA with A25G, U26G, A27G, U28A, C29U, U31C
DNA 1: CAATCTGAATTCCGGTCTCCC
DNA 2: TGGTGGCTACGACGGGATT
B11: UUAAACU (DNA:RNA)
RNA: B1 RNA with A25U, U28A, C29A, A30C
DNA 1: CAATCTGAATTCCGGTCTCCC
DNA 2: TGGTGGCTACGACGGGATT
B12: CGUGCCU (DNA:RNA)
RNA: B1 RNA with A25C, U26G, A27U, U28G, A30C
DNA 1: CAATCTGAATTCCGGTCTCCC
DNA 2: TGGTGGCTACGACGGGATT
B13: AUGGUGA (DNA:RNA)
RNA: B1 RNA with A27G, U28G, C29U, A30G, U31A
DNA 1: CAATCTGAATTCCGGTCTCCC
DNA 2: TGGTGGCTACGACGGGATT
B14: CGCCCUC (DNA:RNA)
RNA: B1 RNA with A25C, U26G, A27C, U28C, A30U, U31C
DNA 1: CAATCTGAATTCCGGTCTCCC
DNA 2: TGGTGGCTACGACGGGATT
B15: UUACGAU (DNA:RNA)
RNA: B1 RNA with A25U, U28C, C29G
DNA 1: CAATCTGAATTCCGGTCTCCC
DNA 2: TGGTGGCTACGACGGGATT
B16: AUGCGAC (DNA:RNA)
RNA: B1 RNA with A27G, U28C, C29G, U31C
DNA 1: CAATCTGAATTCCGGTCTCCC
DNA 2: TGGTGGCTACGACGGGATT
B17: CUCGCGA (DNA:RNA)
RNA: B1 RNA with A25C, A27C, U28G, A30G, U31A
DNA 1: CAATCTGAATTCCGGTCTCCC
DNA 2: TGGTGGCTACGACGGGATT
B18: UCCGAUG (DNA:RNA)
RNA: GGGAGACCGGAAUUCAGAUUGUCCUCCGAUGUUAAAUCCCGUCGUAGCCACCA
DNA 1: CAATCTGAATTCCGGTCTCCC
DNA 2: TGGTGGCTACGACGGGATT
B19: UGGCACU (DNA:RNA)
RNA: B4 RNA with G25U, A26G, U27G, G29A, A31U
DNA 1: CAATCTGAATTCCGGTCTCCC
DNA 2: TGGTGGCTACGACGGGATT
B20: UUGACUU (DNA:RNA)
RNA: B1 RNA with A25U, A27G, U28A, A30U
DNA 1: CAATCTGAATTCCGGTCTCCC
DNA 2: TGGTGGCTACGACGGGATT

molecular target: T1, RBFOX1 RRM; experiment: EMSA; HiTS-Eq, 1 nM pool, 10 min; buffer printed only for the single-RNA assays: 10 mM Tris pH 7.5, 150 mM NaCl, 3.4 mM EDTA, 0.001% NP-40, 30 C; details: tags: His6 N-terminal (pET28a); label: 5' 32P
Procedure, shortened: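 Purified RbFox RRM, wild type or mutant, was incubated for 10 min in 50 µL with 1 nM of a 5′-radiolabelled RNA pool carrying 7 randomized nucleotides, whose flanks were annealed to DNA oligonucleotides, over a series of increasing protein concentrations. Unbound RNA was resolved on 8% native PAGE, cut out, reverse-transcribed, barcoded by PCR and sequenced on an Illumina HiSeq 2500. Relative association constants were derived from changes in read counts for each RNA species versus the control reaction and normalised to the cognate motif.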

| Binder | binding signal |
| --- | --- |
| B1 | 0.00114 KA relative to UGCAUGU |
| B2 | 0.0133 KA relative to UGCAUGU |
| B3 | 0.0112 KA relative to UGCAUGU |
| B4 | 0.0149 KA relative to UGCAUGU |
| B5 | 0.0106 KA relative to UGCAUGU |
| B6 | 0.0211 KA relative to UGCAUGU |
| B7 | 0.00657 KA relative to UGCAUGU |
| B8 | 0.0124 KA relative to UGCAUGU |
| B9 | 0.0032 KA relative to UGCAUGU |
| B10 | 0.021 KA relative to UGCAUGU |
| B11 | 0.00186 KA relative to UGCAUGU |
| B12 | 0.012 KA relative to UGCAUGU |
| B13 | 0.0135 KA relative to UGCAUGU |
| B14 | 0.00892 KA relative to UGCAUGU |
| B15 | 0.0103 KA relative to UGCAUGU |
| B16 | 0.00489 KA relative to UGCAUGU |
| B17 | 0.0103 KA relative to UGCAUGU |
| B18 | 0.015 KA relative to UGCAUGU |
| B19 | 0.0174 KA relative to UGCAUGU |
| B20 | 0.017 KA relative to UGCAUGU |
